Screen size: about 150,000 compounds; about 540 (0.36%) showed an effect of 50% or more. This is one part of the list.
test system: Plasmodium falciparum; experiment: Primary screen in NF54 nanoGlo assay, in single point, at 2uM, 72h; a lower Z score goes with more inhibition; format: functional, Erythrocyte; conditions: timepoint 72 hour

Compound	% Inhibition [%]	Z score
CC(C)(C)OC(=O)N1CCC[C@@H]1CCNC(=O)CCc1ccsc1	2	-0.23
O=C(NC[C@H]1CCCCO1)c1coc(COc2ccc(F)cc2)n1	-13	1.22
COc1ccccc1CC(=O)N[C@@H](Cn1cncn1)C(C)C	9	-1.24
COCCN1C[C@]2(CCCN(C(=O)c3nc(C)c[nH]3)C2)CCC1=O	-16	1.48
COc1ccc(CCNC(=O)C[C@H]2C(=O)NCCN2C2CCCC2)cc1OC	-11	1.58
CC#CCCNC(=O)N1CCCC2CN(C(=O)OC(C)(C)C)CCC21 (stereo not drawn)	-12	2.31
OCCn1nc(-c2ccncc2)nc1CN1CCN(c2ncccn2)CC1	0	-0.06
O=C(NC1CCCCCCC1)C1CCN(S(=O)(=O)c2ccc3c(c2)CCCN3C(=O)C2CCC2)CC1	-9	1.68
Cc1nc(NC(=O)c2scnc2C)n(C)n1	-4	0.34
O=C(CCc1cc2n(n1)CCNC2)N1CCC(Nc2ccccn2)CC1	-4	0.81
CN(Cc1csnn1)[C@H]1CS(=O)(=O)c2ccc(Cl)cc21	-17	1.88
Cc1cccc(OC2CCN(C(=O)c3nc4cccc(C)n4c3F)CC2)c1	-4	0.81
CCCn1ccnc1-c1c(-c2ccccc2)ncn1CCS(C)(=O)=O	-1	0.08
COC(=O)[C@H]1CN(c2nccc(OC)n2)C[C@@H](C)O1	5	-0.86
Cc1cnc(CN2CC3(CCC2=O)CCN(C(=O)Cc2ccccc2)CC3)cn1	-13	1.81
CCCCNc1c2c(nc3ccccc13)CC(C)(C)C[C@@H]2O	-13	1.18
COC1CCN(C[C@]2(O)CCCN(CC3CCCCC3)C2=O)CC1	-5	0.69
CCN(CC)C(=O)Cn1cc(C(=O)NCCC(c2ccccc2)c2ccccc2)nn1	-8	1.52
CCc1noc(COCC(=O)N2CCOc3ncccc3C2)n1	7	-1.18
O=C(Nc1ccc(F)cc1)c1cc(-c2ccccc2Cl)nc2cc(-c3ccccc3)nn12	1	-0.13
Cc1ccc(OCC(=O)Nc2ccc(N3CCOCC3)nc2)cc1	11	-1.45

Compound	% Inhibition [%]	Z score
O=C(c1c(-c2ccccc2)cc(=O)n2c1CCC2)N1CCCC1	-6	0.72
Cc1ccc(CNCc2c(C(=O)N3CCCCCCC3)nc3ccc(Cl)cn23)o1	-6	0.78
CCCN(CCO)C(=O)Nc1ccc(Cl)cc1C	-5	0.55
CCCCCNC(=O)c1snc(-c2ccncc2)c1N	-14	1.32
CC(=O)c1sc(NCc2ccco2)nc1C	-13	1.1
CC(C)COc1ccc(NC(=O)c2csnn2)cn1	3	-0.65
O=S(=O)(C[C@H]1C[C@H]2CCCC[C@H]21)NCc1nc(C2CC2)no1	-5	0.75
O=C(c1ccnc(-n2cnnc2)c1)N1CCC([C@H](O)c2cccs2)CC1	-2	0.26
CC(=O)N[C@@H]1CN(C(=O)NCc2ccn(C(C)C)n2)C[C@H]1c1ccnn1C	-10	1.6
NC(=O)[C@]1(O)CCCN(Cc2nccn2C(F)F)C1	0	-0.03
O=C(NCc1ccccc1)C1=NCCCN1	-1	0.14
CCOc1ccc(-c2cc3c(=O)n(CCC(=O)N4CCCC4)ccn3n2)cc1	35	-4.66
C=CCN(CCC(=O)NC(N)=O)c1nc2c(s1)CCCC2	-25	2.26
O=C(ONc1ccccc1)C1=CC=CN=CN1	2	-0.34
Brc1ccc(-c2nnc(CN3CCc4ccccc4C3)o2)cc1	3	-0.32
O=C(c1ccc(CN2CCc3ccccc3C2)cc1)N1CCN2CCC[C@H]2C1	-3	0.64
OCC[C@H](NCc1ncccc1Cl)c1ccc(Cl)cc1	8	-1.28
C[C@@]12C=C[C@]3(O1)C(C(=O)NC1CCCCC1)N(C1CCCCCC1)C(=O)[C@@H]3C2C(=O)Nc1ccc(F)cc1 (stereo partly drawn)	7	-1.33
Cc1cncc(C(=O)OCc2ncc(C(C)(C)C)o2)c1O	-7	0.6
CC(=O)N1CCC(N(C)Cc2sc3ccccc3c2Cl)CC1	-7	1.43
Cc1c(NC(=O)[C@@H]2CCCC[C@@H]2C(=O)N2CCCC2)c(N2CCCC2)nn1C	-9	1.66

Compound	% Inhibition [%]	Z score
Cc1ccc(NC(=O)[C@@H]2CCCN2S(=O)(=O)c2ccc3c(c2)NC(=O)CO3)c(C)c1	-4	0.61
CCN(Cc1nc(C(C)C)no1)C(=O)Cc1cnc2c(C)cccn12	-5	0.82
C[C@@H](Cc1ccsc1)NC(=O)CN1CCCCCC1	10	-1.55
O=C(COc1ccc2ccccc2c1)N1CC(OC[C@H]2CCOC2)C1	25	-3.24
CC(C)Oc1ccc(CN2[C@@H](CO)CN(C)C(=O)[C@@H]2C)cc1	-10	1.32
O=C1c2ccc(Oc3cccc(Oc4ccc5c(c4)C(=O)N(c4ccccn4)C5=O)c3)cc2C(=O)N1c1ccccn1	-10	1.98
CC(=O)N1CCC[C@H](c2nc(-c3cn4ccccc4n3)no2)C1	-8	1.19
CCn1nnnc1NC(=O)COC[C@H]1CCCO1	-12	2.12
CC1CN(C(=O)NCC2CNCCO2)C2CCCCC12 (stereo not drawn)	-16	2.34
CCc1ccccc1OCCc1c(C)n[nH]c1C	-11	1.7
O=C(c1ccccc1)c1cc(Cl)ccc1NC(=O)c1c(O)nc2ccc(Cl)cc2c1-c1ccccc1	-14	1.24
C1=CC[C@@H](CN2CCc3nnc(-c4ccccc4)n3CC2)CC1	-9	1.19
CCC(C)C1NC2(CCN(S(=O)(=O)c3ccc(C)cc3)CC2)N(Cc2cccc(C(F)(F)F)c2)C1=O (stereo not drawn)	-21	3.11
Cc1ccsc1-c1nccn1CCc1n[nH]c(=O)[nH]1	-17	1.54
Cc1ccc(NC(Nc2ccc(C)cc2)=C(NC(=O)c2ccccc2)C(=O)N2CCCCC2)cc1	7	-0.98
COCCN1C(=O)c2ccc(C(=O)Nc3nnc(C4CC4)s3)cc2C1=O	-17	2.07
CCc1ccc(CN[C@@H](CC)CO)cc1	-4	0.61
CCc1ncc2c(n1)CN(C(=O)c1csc3c1CCCC3)C2	-6	0.85
C[N+](Cc1coc(-c2ccccc2)n1)(Cc1coc(-c2ccccc2)n1)Cc1coc(-c2ccccc2)n1	7	-1.03
Cc1noc(C)c1CNC1(CO)CC(C)CC(C)(C)C1 (stereo not drawn)	-2	0.29
COc1cccc(C(=O)N2CCC(N3C[C@H](O)C[C@H]3C(=O)NCc3cc(F)cc(F)c3)CC2)c1	-3	0.34

Compound	% Inhibition [%]	Z score
CC(C)CNC(N)=NCc1ccc(F)cc1	-2	0.32
COc1ccc(CC(=O)N2CCN(c3nc(CN4CCN(c5cc(Cl)ccc5OC)CC4)cc(=O)[nH]3)CC2)cc1	4	-0.59
CCNC(=O)NCCc1cn(CC(C)C)c2ncccc12	5	-0.96
Cc1cc([C@@H](C)NC(=O)CCc2nc(N(C)C)no2)ccc1F	35	-3.96
C[C@H](NCC(C)(C)C(N)=O)c1ccc(Cl)cc1	8	-0.95
Cc1cc(C)nc(N2C(=O)N(C)C(O)C2O)c1 (stereo not drawn)	30	-3.86
O=C(NC(c1ccc(F)cc1)C1CCCO1)c1cnsn1 (stereo not drawn)	-9	0.99
O=C(CCc1ccc(CC2CCN(Cc3cccnc3)CC2)cc1)NCC1CC1	-18	3.36
Cc1cc(NC(=O)C2(C#N)CCCCC2)[nH]n1	-11	1.3
CCC(C)(CC)c1nc(-c2ccc(S(C)(=O)=O)cc2)no1	-7	1.16
Nc1nc2c(c(C(=O)N3CC[C@@]4(CCCN(CC5CCC5)C4=O)C3)n1)CCCC2	-2	0.31
Cc1ccc(-n2ncc3c2CC(C)(C)C[C@@H]3NC(=O)CN2CCOC2=O)cc1	-36	3.19
O[C@H](COc1ccc2c(c1)CCC2)CN1CCN(c2ccccc2)CC1	6	-0.7
CC1(C)CO[C@H](c2ccccc2Cl)CN1c1cnc(C#N)cn1	-1	0.19
O=C(N[C@H](CO)CCO)c1ccc(N2CCC2)nc1	-8	1.42
OCc1cccc(CNC2CCN(c3ccc4c(c3)CCC4)CC2)c1	-5	0.95
CC(C)C(=O)N1CC(C(=O)NCc2ccccn2)C(c2cccc(F)c2)C1 (stereo not drawn)	-12	1.35
O=C(CC1CC1)N1CCC[C@H](CCc2noc(-c3ccc(F)cc3)n2)C1	-10	1.6
O=S(=O)(c1ccccc1)N1CC(N(CC2CC2)C2CCOCC2)C1	0	0.08
C[C@@H](COc1ccc(F)cc1F)NC(=O)NC1CCCCC1	4	-0.46
N#C[C@H]1CCCN(C(=O)c2ccc(-c3ncc(C(=O)O)cc3Cl)cc2)C1	1	-0.13
